Marks after values point to notes of the source that are not given here.
Experiment: pH-stability of SPL026 (DMT fumarate) 2.5 mg/mL in 40 mM Britton-Robinson buffer (pH, HPLC assay, related substances)

## CN(C)CCc1c[nH]c2ccccc12.O=C(O)/C=C/C(=O)O [SPL026, N,N-dimethyltryptamine (DMT) fumarate salt]
Nominal pH 4.0, Day 7: 7 days storage at 40° C.
  pH: 3.84
Nominal pH 4.0, Day 17: 10 days at 40° C. followed by 7 days at 50° C.
  pH: 3.84
Nominal pH 4.0, Initial
  pH: 3.86
Nominal pH 5.0, Day 7: 7 days storage at 40° C.
  pH: 4.55
Nominal pH 5.0, Day 17: 10 days at 40° C. followed by 7 days at 50° C.
  pH: 4.52
Nominal pH 5.0, Initial
  pH: 4.57
Nominal pH 6.0, Day 7: 7 days storage at 40° C.
  pH: 5.07
Nominal pH 6.0, Day 17: 10 days at 40° C. followed by 7 days at 50° C.
  pH: 5.06
Nominal pH 6.0, Initial
  pH: 5.08
Nominal pH 6.5, Day 7: 7 days storage at 40° C.
  pH: 5.33
Nominal pH 6.5, Day 17: 10 days at 40° C. followed by 7 days at 50° C.
  pH: 5.31
Nominal pH 6.5, Initial
  pH: 5.33
Nominal pH 7.0, Day 7: 7 days storage at 40° C.
  Concentration (assay): 2.54 mg/mL
Nominal pH 7.0, Day 17: 10 days at 40° C. followed by 7 days at 50° C.
  Concentration (assay): 2.45 mg/mL
Nominal pH 7.0, Initial
  Concentration (assay): 2.54 mg/mL
  pH: 6.12
Nominal pH 7.0 UV Light, Initial
  Concentration (assay): 2.54 mg/mL
Nominal pH 7.0 UV Light, on completion of light stressing (200 watt hours UVA, 0.6 million luxhours)
  Concentration (assay): 2.26^a mg · mL^−1
Nominal pH 7.0 sparged N2, Day 7: 7 days storage at 40° C.
  Concentration (assay): 2.54 mg/mL
Nominal pH 7.0 sparged N2, Day 17: 10 days at 40° C. followed by 7 days at 50° C.
  Concentration (assay): 2.51 mg/mL
Nominal pH 7.0 sparged N2, Initial
  Concentration (assay): 2.54 mg/mL
Nominal pH 7.5, Day 7: 7 days storage at 40° C.
  Concentration (assay): 2.55 mg/mL
Nominal pH 7.5, Day 17: 10 days at 40° C. followed by 7 days at 50° C.
  Concentration (assay): 2.46 mg/mL
Nominal pH 7.5, Initial
  Concentration (assay): 2.50 mg/mL
Nominal pH 8.0, Initial
  Concentration (assay): 2.49 mg/mL
Nominal pH 9.0, Day 7: 7 days storage at 40° C.
  pH: 7.72

— US20250032450A1, “[…] INHALABLE FORMULATIONS” (Cybin UK Ltd., priority 2021, published 2025)
